For 54 compounds, TGI and GI50 results are on record in PubChem BioAssay (NCI).

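Following 48 hours of exposure in 96-well plates, responses at five concentrations were used to interpolate endpoints linearly. GI50: concentration for 50% inhibition of growth. The concentration for full growth arrest is given as TGI.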 Numbered stars: 1 amine (or outer) side, 2 acyl side, 3 side chain; on linkers, the order of the positions; unused ones are H or OH. Bridge positions count the residues as written; N and C are the ends. Square brackets hold non-standard residues; d marks the D form. Peptide text beside a SMILES is read from it. I, II: the chains in the order shown. Actinocin(9to1) = Cc1c2oc3c(C)ccc(C(=O)[*:1])c3nc-2c(C(=O)[*:2])c(N)c1=O; NMeV = CN[CH](C(=O)O)C(C)C; Sar = CNCC(=O)O

The experiment concerns NCI-H322M lung. In words: NCI tumour cell line growth inhibition, 48 h.
`CCOC(=O)c1cn2c(n1)sc1cc(F)ccc12` showed a TGI above 100 µM. On the same count and under the same terms, the figure for `CC(=O)Nc1cc2ccc(=O)oc2cc1Cl` is above 100 µM. On the same count and under the same terms, the same measure for `CC1=NN(c2nc(N)nc(COc3ccc(N)cc3)n2)C(C)(C)C1`: above 100 µM. Regarding `O=C(Nc1cccc(C(F)(F)F)c1)Nc1cccc(C(F)(F)F)c1`, the GI50 was 1.97 µM and the TGI amounted to 11.1 µM. On to `CN1CCN(c2ccc(Nc3ncc(Cl)c(NC[C@@H]4CCCO4)n3)cc2)CC1`, for which the GI50 was 2 µM and the TGI is above 100 µM.

For `COC(=O)CC(C)(NS(=O)c1ccc(C)cc1)c1ccccc1` (configuration not stated), the TGI was above 100 µM. In turn, `O=C1SC(SCc2ccccc2)=NC12CC2c1ccccc1` (configuration not stated) came in with a TGI of 62 µM.

As for `Oc1ccc(NCn2c(=S)sc3ccccc32)cc1`, the TGI was above 100 µM.

Turning to `N#CC(C(=O)CCC(=O)Nc1ccc(Cl)c(Cl)c1)c1ccccc1` (configuration not stated), the TGI is above 100 µM. Turning to `O=C(CC1Sc2ccccc2NC1=O)Nc1ccccc1[N+](=O)[O-]` (configuration not stated), the TGI was above 100 µM.

Turning to `COc1ccc(C2Oc3cc(OC)c(OC)cc3C2CCl)cc1OC` (configuration not stated), the TGI is above 100 µM. The same measure, in the same setting: the same measure for `Cc1ccc(Nc2nc(NNC(=O)Cc3ccccc3)nc(NNC(=O)c3ccncc3)n2)cc1`: above 10 µM.

`Cc1ccc(S(=O)(=O)N2CCC2c2ccccc2)cc1` (configuration not stated) showed a TGI above 100 µM. On the same count and under the same terms, the figure for `C=CCNC(=S)N/C=C(\C#N)C(N)=O` is above 100 µM; for `O=c1[nH]c(=O)n(C2COC(CO)C2O)cc1F` (configuration not stated) it is above 100 µM.

As for `O=C1NC(=NCc2ccccc2)S/C1=C\c1ccc2ncccc2c1`, the GI50 is above 25 µM and the TGI was above 25 µM. Regarding `Cc1ccc(C(=O)OC(C(=O)O)C(OC(=O)c2ccc(C)cc2)C(=O)O)cc1` (configuration not stated) (tested in a mixture with another compound), the TGI stood at 24 µM. `Cc1ccc(S(=O)(=O)N2CC2CCCCC=O)cc1` (configuration not stated) returned a TGI above 100 µM.

As to `Cc1[nH]c(=O)nc2sc(=NC3CCCCC3)n(C3CCCCC3)c(=O)c12`, the TGI is above 100 µM. The same measure, in the same setting: the same measure for `Cc1cn(C2OC(CO[Si](C)(C)C(C)(C)C)C(N(C)O[Si](C)(C)C(C)(C)C)C2[Se]c2ccccc2)c(=O)[nH]c1=O` (configuration not stated): 53.3 µM. As to `CC(C)(C)[Si](C)(C)OC1[C@@H](O[Si](C)(C)C(C)(C)C)[C@@H](CNC(=O)NC(=O)C(F)(F)F)O[C@H]1n1cnc2c(NC(=O)Nc3ccccc3)ncnc21` (some centres not stated), the GI50 is 10.7 µM and the TGI was 19.7 µM. The corresponding values for `N=C(N)c1ccc(OCCCCCCCCCCOc2ccc(C(=N)N)cc2)cc1` are 1.42 µM and 2.78 µM. In turn, `N#Cc1cccc(-n2[nH]c(=O)ccc2=O)c1` displayed a TGI above 100 µM. As for `Cc1[cH-]c(=O)n(-c2ccccc2)n1.[Au+].[Au].c1ccc([PH+](c2ccccc2)c2ccccc2)cc1.c1ccc([PH+](c2ccccc2)c2ccccc2)cc1`, the GI50 is 35.2 µM and the TGI was above 100 µM.

For `c1ccc(Nc2ncc(-c3ccccc3)o2)cc1`, the GI50 is above 19.3 µM and the TGI is above 25 µM. `CC1(C)[C@@H](Cn2cc(I)c(=O)[nH]c2=O)CC[C@@]1(C)CO` displayed a TGI above 100 µM. Compound `CN(C)c1ccc(/C=N/NC(=S)Nc2ccccc2)cc1` showed a TGI above 100 µM. The same measure, in the same setting: the figure for `COCOC1/C=C/CCCCC(=O)C(C)C#CC1` (configuration not stated) is 24.7 µM; for `Cc1ccc(-[n+]2cc([O-])on2)cc1` it is above 100 µM.

Take `COc1c2ccccc2c(OC)c2[nH]c(=O)ccc12`: the GI50 was 1.83 µM and the TGI was found to be 3.44 µM.

`C[C@]12[C@@H]3CC[C@H]1[C@@H](O)C(=O)N2CC3` registered a TGI above 100 µM. `CN(C)C=Nc1nc(=O)n(C2CCC(CO)O2)cc1F` (configuration not stated) displayed a TGI above 100 µM. Consider `O=C(C(=O)n1ccc2ccccc21)n1ccc2ccccc21`, for which the TGI is above 100 µM. Regarding `CC(=O)OC1(C)N=NC2(CCCCC2)O1` (configuration not stated), the TGI is above 100 µM. In the case of `COC(=O)/C=C/c1cc(OC(C)=O)c2c(c1)[C@@H](C(=O)OC)[C@H](c1ccc(OC(C)=O)c(OC(C)=O)c1)O2`, the GI50 is 2.92 µM and the TGI came out at 42.9 µM. In turn, `CC(=O)OCCOCNC(=S)N/N=C/c1ccc([N+](=O)[O-])o1` came in with a TGI above 100 µM. On the same count and under the same terms, the figure for `CSC(=O)c1sc(SC)[n+](-c2ccccc2)c1O` is 30.7 µM. Regarding `COc1cc2c(cc1OC)C(Cl)C(c1ccc(F)cc1)=C2Cl` (configuration not stated), the TGI turned out to be 33.5 µM. For `Cn1cc(-c2cc3c(N4CCN(c5ncc([C@@](C)(N)c6ccc(F)cc6)cn5)CC4)ncnn3c2)cn1`, the GI50 is above 100 µM and the TGI was above 100 µM. As to `Cc1ccc2nc(-c3ccccc3)cc(=O)n2c1`, the TGI is above 100 µM. Compound `CCC(C)SC1SCC2C(=O)N(C)C3(CC3C)C(=O)OCC(NC(=O)c3nc4ccccc4cc3O)C(=O)NC(C)C(=O)N(C)C1C(=O)N(C)C1(CC1C)C(=O)OCC(NC(=O)c1nc3ccccc3cc1O)C(=O)NC(C)C(=O)N2C` (configuration not stated) gave a TGI of 0.000485 µM. `CC(C)(CN1CCCCC1)C(/C=C/c1ccc(Cl)cc1)=N\NC(=O)N/N=C(/C=C/c1ccc(Cl)cc1)C(C)(C)CN1CCCCC1` showed a TGI of 25 µM. In turn, `COC(=O)c1ccc(Cc2cc(Cc3ccc(C(=O)OC)cc3)cc(Cc3ccc(C(=O)OC)cc3)c2)cc1` showed a TGI above 25 µM. Regarding `O=C(O)Cc1ccc([N+](=O)[O-])cc1[N+](=O)[O-]`, the TGI was above 100 µM.

For `C#Cc1cccc(Nc2nc3cc([N+](=O)[O-])ccc3nc2Nc2ccc(O)cc2)c1`, the GI50 is 1.66 µM and the TGI is 4.7 µM. `CO[C@](C(=O)OC[C@H]1[C@@H](COC(C)=O)[C@@H]2O[C@H]1c1cc3c(cc12)OCO3)(c1ccccc1)C(F)(F)F` came in with a TGI above 100 µM.

`O=c1[nH]c(-c2ccccc2)nc2cc(Cl)ccc12`: the TGI was above 100 µM. `O=C1c2ccccc2-n2nnnc2C2CSCN12` (configuration not stated) displayed a TGI above 100 µM.

The compound `Cc1c2oc3c(C)ccc(C(=O)NC4C(=O)NC(C(C)C)C(=O)N5CCCC5C(=O)N(C)CC(=O)N(C)C(C(C)C)C(=O)OC4C)c3nc-2c(C(=O)NC2C(=O)NC(C(C)C)C(=O)N3CCCC3C(=O)N(C)CC(=O)N(C)C(C(C)C)C(=O)OC2C)c(N)c1=O` (configuration not stated) (I: TVP[Sar][NMeV] / II: TVP[Sar][NMeV]; ester I:1-I:C, II:1-II:C; linker I:N-II:N via Actinocin(9to1); configuration not given here) returned a TGI of 0.0499 µM. Turning to `COc1ccc2ncnc(Nc3ccc(OCc4ccccc4)cc3)c2c1`, the GI50 is 5.3 µM and the TGI was above 21 µM. Take `[O-][Cl+3]([O-])([O-])[O-].[O]=[Ru]=[O].c1ccc(-c2ccccn2)nc1.c1ccc(-c2ccccn2)nc1`: the GI50 is above 100 µM and the TGI is above 100 µM. As for `COc1cc(C2C(Cl)C(=O)N2n2cnc3ccccc3c2=O)ccc1O` (configuration not stated), the TGI is above 100 µM.

As to `COc1ccc2oc3c(C)cc4c(OC)nnc(OC)c4c3c2c1`, the TGI is above 100 µM.

On to `N#Cc1nc(-c2cnccn2)oc1N`, for which the TGI was above 100 µM.
